Source: patent US20200196599A1 (priority 2018, published 2020)

Target: T1, AtEXO70A1 (Arabidopsis thaliana, UniProt Q9LZD3)
T1 sequence (Q9LZD3 1-638): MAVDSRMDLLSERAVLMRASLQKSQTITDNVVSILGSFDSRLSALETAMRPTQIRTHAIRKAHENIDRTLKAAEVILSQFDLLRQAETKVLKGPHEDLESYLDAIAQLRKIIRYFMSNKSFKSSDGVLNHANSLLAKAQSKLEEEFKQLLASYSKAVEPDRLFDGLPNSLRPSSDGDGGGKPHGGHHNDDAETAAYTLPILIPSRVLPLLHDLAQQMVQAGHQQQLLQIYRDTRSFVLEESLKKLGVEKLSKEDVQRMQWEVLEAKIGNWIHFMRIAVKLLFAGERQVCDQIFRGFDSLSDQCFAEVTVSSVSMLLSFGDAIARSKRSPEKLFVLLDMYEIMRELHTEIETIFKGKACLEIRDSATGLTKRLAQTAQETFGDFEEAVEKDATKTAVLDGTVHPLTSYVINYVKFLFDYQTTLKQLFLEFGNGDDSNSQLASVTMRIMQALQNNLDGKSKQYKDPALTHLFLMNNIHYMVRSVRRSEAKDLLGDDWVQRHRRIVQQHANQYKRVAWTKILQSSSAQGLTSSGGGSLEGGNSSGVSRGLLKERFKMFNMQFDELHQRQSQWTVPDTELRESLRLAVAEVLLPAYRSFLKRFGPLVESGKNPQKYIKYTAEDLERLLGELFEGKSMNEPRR
Details: 400 μM compound, pronase 1:3000 dilution
Procedure: The full-length AtEXO70A1 protein fused with the SUMO-His tag was purified (FIG. 8, lane 2) and tested for its interaction with analog 14 and AtEXO70A1 using the drug affinity responsive target stability (DARTS) assay that is based on the protection of receptor proteins by ligands from degradation by proteases (Lomenick et al., 2009).
To test the interaction between ES2 or analog 14 and EXO70 proteins, purified AtEXO70A1, MoEXO7O or BcEXO70 was used. 2.5 μg of purified protein was mixed with 2.5 μg of BSA in 200 μl reactions. The protein mixture was incubated with 2% DMSO, 400 μM ES2 or 400 μM analog 14 for 1 hour at room temperature with rotating. After incubation, each protein and chemical mixture was divided into 3 tubes. 1 μl pronase at 1:3000 or 1:10,000 dilutions from 10 mg/ml stock or 1 μl water was added to different aliquots. After 30 minutes of digestion, the reaction was terminated by adding SDS loading buffer and denaturing at 100° C. for 5 minutes. The samples were loaded to SDS-PAGE and the protein was detected using silver staining. The silver stained gel was scanned and the intensity of protein band was quantified using ImageJ.

With `COc1cc(/C=N/NC(=O)c2cccc(F)c2)cc(I)c1O` [ES2, endosidin2, reference compound] the “protection of AtEXO70A1 from degradation by pronase” value was “protected AtEXO70A1 from degradation”.

In the case of `O=C(N/N=C/c1cc(I)c(O)c(I)c1)c1cccc(F)c1` [analog 14], the “protection of AtEXO70A1 from degradation by pronase” value is reported as “protected AtEXO70A1”.
